Target: T1, Ig.nephrin, membrane-bound fusion protein of the C-terminal cytoplasmic domain of nephrin (AA 1087-1241) (human, UniProt O60500 1087-1241)
T1 construct: pCDM8 cassette: CD5 leader, CH2-CH3 of human IgG1, CD7 transmembrane region, then the nephrin stretch; also called nephrin c-terminus; source: HEK293T, transiently transfected, in lysate; not shown: transmembrane region of CD7, N-terminal, kept
T1 sequence (looked up): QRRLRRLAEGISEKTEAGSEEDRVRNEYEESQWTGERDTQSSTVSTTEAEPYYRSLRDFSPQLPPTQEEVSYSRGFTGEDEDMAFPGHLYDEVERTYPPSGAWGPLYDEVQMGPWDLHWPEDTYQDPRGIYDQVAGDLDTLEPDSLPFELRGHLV
Experiment: co-IP; HEK293T transiently transfected (Ig.nephrin fusion, partner, AT1 receptor), with or without Ang II (1 μM, up to 60 min) and inhibitors (candesartan, PP2, PTX, Ly294002, U73122) or GNAQ siRNA; 1% Triton X-100 lysate, protein G sepharose 1 h at 4 °C; Western blot
Details: partners not purified

B1: FLAG-tagged β-arrestin2 (natural protein)
chain: not shown
notes: β-arrestin2; plasmid a gift from Dr. Robert Lefkowitz; The Lefkowitz FLAG-β-arrestin2 plasmid is, as far as I recall, the rat cDNA; also called F.β-arrestin2; source: HEK293T, transiently transfected, in lysate
  fold enhancement of β-arrestin2 co-precipitated with nephrin, 60 min Ang II against no Ang II: 3 fold

Reference: paper PMC5177899, “Angiotensin II increases glomerular permeability by β-arrestin mediated nephrin endocytosis” (Scientific Reports, 2016)
